Experimental data from PubChem BioAssay AID360 (National Center for Advancing Translational Sciences (NCATS), 2006).
About 550 (1.1%) of roughly 48,000 compounds were called active. Another 4% or so got no clear call; they are omitted. Cut-off read from the data, not from the text of the source: active = potency below about 15 µM; inconclusive = mostly about 16 µM to 33 µM; inactive = weaker than that. Some of the results follow.

target: Lysosomal acid glucosylceramidase (Homo sapiens) (UniProt P04062); assay: Glucocerebrosidase; settings: purified enzyme, resorufin glucoside fluorescence (screen aimed at inhibitors), 20 min;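 note: the screen sought inhibitors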
Summary of the method: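 Wild-type enzyme at 0.2 nM final in 50mM citric acid/KH2PO4, 10mM sodium taurocholate, 0.01% tween-20, pH 5.9, with resorufin beta-D-glucopyranoside at 30 uM final. Compounds titrated, 20 min at RT, red fluorescence read; AC50 from titration.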
Potency is the fitted concentration of half-maximal effect.

Chain of UniProt P04062 (P04062 whole entry, looked up): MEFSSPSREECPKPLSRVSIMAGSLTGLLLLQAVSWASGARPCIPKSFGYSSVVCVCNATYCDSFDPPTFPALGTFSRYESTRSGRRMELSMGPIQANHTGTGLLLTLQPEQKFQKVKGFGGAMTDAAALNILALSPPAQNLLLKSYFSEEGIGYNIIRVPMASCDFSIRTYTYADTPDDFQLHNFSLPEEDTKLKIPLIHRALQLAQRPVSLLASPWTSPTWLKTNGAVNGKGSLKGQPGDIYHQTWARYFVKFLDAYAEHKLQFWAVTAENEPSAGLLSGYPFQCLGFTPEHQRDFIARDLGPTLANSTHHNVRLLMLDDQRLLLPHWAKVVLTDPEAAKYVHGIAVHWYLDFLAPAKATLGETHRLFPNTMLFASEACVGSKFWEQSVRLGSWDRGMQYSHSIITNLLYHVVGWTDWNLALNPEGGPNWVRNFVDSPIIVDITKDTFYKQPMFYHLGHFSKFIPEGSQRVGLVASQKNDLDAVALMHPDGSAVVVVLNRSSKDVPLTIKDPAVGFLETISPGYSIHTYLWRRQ

Potency, inactive:
CC1(C)Cc2noc(N)c2C(C)(C)N1OC(=O)c1cccs1 > 76.9 µM
Cc1ccc(NC(=O)CSCC(=O)Nc2ncc3c(n2)CC(c2ccco2)CC3=O)cc1 (stereo not given) > 76.9 µM
O=C(COC(=O)Cc1cccc(C(F)(F)F)c1)NCC1CCCO1 (stereo not given) > 76.9 µM
Cc1oc(-c2ccccc2F)nc1CN1CCC(C(=O)NCCC2=CCCCC2)CC1 > 76.9 µM
COc1ccc(-c2noc(C3CCCN(C(=O)CCc4ccccc4)C3)n2)cc1 (stereo not given) > 76.9 µM
CCCCN(CC)C(=O)c1ccc(Cl)c(Cl)c1 > 76.9 µM
COc1cc2c(cc1OC)C(C(=O)NCc1cccnc1)C(c1cccnc1)N(C)C2=O (stereo not given) > 76.9 µM
Cc1cccc(OCc2nnc(SCc3cc(=O)n4cc(Br)ccc4n3)o2)c1
Cn1c(=O)c2c(nc(NC3CCCCC3)n2CC(O)COc2ccccc2)n(C)c1=O (stereo not given) > 76.9 µM
COc1cccc(OC)c1-c1nn2c(-c3cc(-c4ccccc4)n[nH]3)nnc2s1
Cc1ccc(S(=O)(=O)NCCCC(=O)C=[N+]=[N-])cc1
CCC(=O)N1CCNC(=O)C1CC(=O)Nc1ccc(C)c(Cl)c1 (stereo not given) > 76.9 µM
O=C(Nc1ccc(-c2noc(-c3cccs3)n2)cc1)c1cccnc1 > 76.9 µM
CCC(c1nnc(SCC(=O)NCC2CCCO2)n1Cc1ccccc1)N(C)C (stereo not given) > 76.9 µM
COc1ccccc1CC1(C)NC(=O)N(CC(=O)N2CC(C)OC(C)C2)C1=O (stereo not given) > 76.9 µM
CCOC(=O)c1sc(NC(=O)c2c(C)nn(Cc3ccccc3)c2C)cc1C > 76.9 µM
COc1ccc(C(=O)N2c3ccccc3CC2C)cc1OC (stereo not given) > 76.9 µM
CCc1c(C)c(C#N)c2nc3ccccc3n2c1N(C)C > 76.9 µM
COc1ccc(OCc2nn3c(-c4ccccn4)nnc3s2)cc1 > 76.9 µM
CCOC(=O)c1nnn(CC(=O)Nc2cccc(Cl)c2C)c1C(=O)OCC > 76.9 µM
COC(=O)c1ccc(C(=O)OC)c(NC2=NS(=O)(=O)c3ccccc32)c1 > 76.9 µM
COC(=O)c1nnn(CC(=O)Nc2cccc(Cl)c2C)c1C(=O)OC > 76.9 µM
COc1ccc(CCNC(=O)CSc2nnc(-c3ccccc3)o2)cc1OC > 76.9 µM
CCOC(=O)c1c(-c2ccccc2)[nH]c2ccc(O)cc12 > 76.9 µM
CC1CCCC(C)N1C(=O)C1CC(c2ccc(F)cc2)=NO1 (stereo not given) > 76.9 µM
O=C(CCn1c(=O)oc2ccccc21)Nc1ccccc1 > 76.9 µM
COC(=O)c1c(N)c2ccccc2[nH]c1=O > 76.9 µM
COc1ccccc1CNS(=O)(=O)c1c(C)noc1C > 76.9 µM
O=C1OCC(c2ccccc2)=C1c1ccc(S(=O)(=O)N2CCOCC2)s1 > 76.9 µM
CCOC(=O)C1CCN(C(=O)c2cn(-c3ccccc3)nc2-c2cccnc2)CC1 > 76.9 µM
CCOc1ccc(NC(=O)CSc2nnc(C)n2CCCOC)cc1 > 76.9 µM
CCC(=O)N1CCc2cc(Br)cc(S(=O)(=O)NCc3ccco3)c21 > 76.9 µM
Cc1cc(C)c(C#N)c(SCc2ccc3c(c2)OCO3)n1 > 76.9 µM
COC(=O)c1cnn(C(=O)c2cc(OC)ccc2Br)c1N > 76.9 µM
CC(C)COc1ccc(/C(O)=C2/C(=O)C(=O)N(CCN(C)C)C2c2ccncc2)cc1 (stereo not given) > 76.9 µM
O=C(O)c1ccccc1OCCOc1ccccc1 > 76.9 µM
C=CCn1c(Cc2csc(N)n2)nnc1SCc1ccc(C(=O)OC)cc1 > 76.9 µM
Cc1nn2c(-c3cccc(NC(=O)CN4CCOCC4)c3)nnc2c2ccccc12 > 76.9 µM
CC1CCCCC1NC(=O)C1CCN(S(=O)(=O)N2CCC3(CC2)OCCO3)CC1 (stereo not given) > 76.9 µM
COc1ccc(CNC(=O)CSc2nnc(-c3ccc(NC(C)=O)cc3)n2C)cc1 > 76.9 µM
COc1ccc(N2CCN(C(=O)C(CCSC)N=C3NS(=O)(=O)c4ccccc43)CC2)cc1 (stereo not given) > 76.9 µM
O=C1CC(Cc2ccc(Cl)cc2)C(=O)N1c1ccccn1 (stereo not given) > 76.9 µM
COc1cc(C(=O)NCCC(=O)NCCCN2CCCCC2C)cc(OC)c1OC (stereo not given) > 76.9 µM
CC1Cc2ccccc2N1C(=O)c1cc2c(=O)n3ccccc3nc2n1C (stereo not given) > 76.9 µM
COC(=O)c1c(NC(=O)CN2CCN(c3ccccc3OC)CC2)c2cc(C)ccc2n1C > 76.9 µM
Cc1ccc(OC(C)c2nnc(N)s2)cc1Cl (stereo not given) > 76.9 µM
CCCS(=O)(=O)N1CCC(C(=O)NC2CCCCC2C)CC1 (stereo not given) > 76.9 µM
CCOC(=O)c1ccc(NC(=O)CSc2nnnn2CCCO)cc1 > 76.9 µM
COc1ccc(Cn2c(C3CC3)nc3ccc(NC(C)=O)cc3c2=O)cc1 > 76.9 µM
CCOc1nc2ccccc2nc1NS(=O)(=O)c1ccccc1 > 76.9 µM
Cc1cccc(C)c1NC(=O)Cn1nnc(-c2ccc(N3CCOCC3)cc2)n1 > 76.9 µM
CS(=O)(=O)NCCSCc1ccccc1 > 76.9 µM
CC1CC(C(F)(F)C(F)(F)F)n2nc(C(=O)O)cc2N1 (stereo not given) > 76.9 µM
Cc1ccc2[nH]c(=O)c(CN(CC3CCCO3)S(=O)(=O)c3cccc4nsnc34)cc2c1 (stereo not given) > 76.9 µM
O=C(Cn1cnc2c(oc3ccccc32)c1=O)NCc1ccco1 > 76.9 µM
Cc1oc(-c2ccc(Cl)cc2)nc1CN1CCC(C(=O)NCc2ccco2)CC1 > 76.9 µM
O=C(NC1CCCc2ccccc21)C1CCN(S(=O)(=O)c2cccc3nonc23)CC1 (stereo not given) > 76.9 µM
OC(c1cccs1)c1nccc2ccccc12 (stereo not given) > 76.9 µM
CCCn1c(SCC(=O)Nc2nccs2)nnc1-c1cccnc1 > 76.9 µM
CCOC(=O)C1CCN(Cc2cn[nH]c2-c2ccccc2)CC1 > 76.9 µM
CC(=O)Nc1ccc(NC(=O)C(C)Oc2ccccc2F)cc1 (stereo not given) > 76.9 µM
COC(=O)c1cccc(NC(=O)CSc2nnc(COc3ccccc3)n2C)c1 > 76.9 µM
COCCNC(=O)NC(=O)COC(=O)C12CC3CC(CC(NC(C)=O)(C3)C1)C2 > 76.9 µM
CCC1(CC)NC(=O)N(CC(=O)OCC(=O)Nc2cc(C)ccc2C)C1=O > 76.9 µM
COc1ccccc1NC(=O)CSc1nnc(C2CCCCC2)o1 > 76.9 µM
O=c1[nH]c2cc3c(cc2cc1CN(CCc1ccccc1)Cc1nnnn1C1CCCC1)OCCO3 > 76.9 µM
C=CCn1c(SCC(=O)c2cc(C)n(Cc3cccs3)c2C)nnc1-c1ccncc1 > 76.9 µM
C=CCn1c(SCC(=O)Nc2ccc(N(C)C)cc2)nnc1-c1cccc(C)c1 > 76.9 µM
CC(CC(=O)O)CC1=NS(=O)(=O)c2ccccc2N1 (stereo not given) > 76.9 µM
CC(=O)N1CCN(c2ccc(Oc3ncnc4sccc34)cc2)CC1
COC(=O)c1ccccc1NC(=O)c1nc2nc(C)cc(C)n2n1 > 76.9 µM
COc1ccc(-n2nnnc2-c2cccnc2)cc1 > 76.9 µM
COc1ccc(O)c(-c2[nH]ncc2C(=O)c2ccccc2)c1 > 76.9 µM
O=S(=O)(c1ccc(F)cc1)N1CCN(c2ncnc3c2cnn3-c2ccccc2)CC1 > 76.9 µM
CCCCc1c(O)c2ccccc2[nH]c1=O > 76.9 µM
CC(C)Cc1n[nH]c(=O)[nH]1 > 76.9 µM
O=C(O)c1ccccc1NCc1ccncc1 > 76.9 µM
Cc1ccccc1OCCCC(=O)Nc1ccc2c(c1)OCO2 > 76.9 µM
COc1ccc(OC)c(N(CC(=O)NCc2cccnc2)S(C)(=O)=O)c1 > 76.9 µM
Cc1nnc(SCCCN2C(=O)c3ccccc3C2=O)o1 > 76.9 µM
CC1=C(C(=O)OCc2ccccc2)C(c2ccccn2)c2c(n(C)c(=O)n(C)c2=O)N1 (stereo not given) > 76.9 µM
O=C(CSc1nnc(Cc2ccccc2)n1-c1cccc(Cl)c1)N1CCOCC1 > 76.9 µM
COc1ccccc1-c1cc(C(F)(F)F)nc(S(=O)(=O)CCCC(=O)N2CCCCC2C)n1 (stereo not given) > 76.9 µM
CSc1cccc(NC(=O)CSc2nc3ccccc3o2)c1 > 76.9 µM
Cc1cc(C)n2nc(SCC(=O)c3cc(C)n(-c4cc(C)on4)c3C)nc2n1 > 76.9 µM
O=C1c2ccccc2C(=O)N1CC1c2ccccc2CCN1S(=O)(=O)c1cnc[nH]1 (stereo not given) > 76.9 µM
CCn1c(CNc2ccc(C)cc2)nnc1SCC(=O)NCc1ccccc1 > 76.9 µM
CCn1cc(C(=O)NC2CCCC2)c(=O)c2cc(S(=O)(=O)N3CCOCC3)ccc21 > 76.9 µM
O=C(OCC(=O)N1CCCCCC1)c1n[nH]c(=O)c2ccccc12 > 76.9 µM

Potency, active:
N#CC1=C(N)N(c2ccccc2)C2=C(C(=O)CCC2)C1c1ccsc1 (stereo not given) 14.9 µM
